Among the data in PubChem BioAssay AID330 (DTP/NCI, 2004) are T/C values, retold here.

Inconclusive results and toxic doses are left out. For part of its entries the source gives two or more results. This is not the full list of results. There may be further records. Values given together do not match, cause unknown; some may be repeats, others may stem from another dose, organism or construct than stated. Records carry a tag for their origin. Letters hold for one entry only.

The test system of this assay is P388 leukemia ip, CD2F1 mice, survival T/C. In words: NCI In Vivo Anticancer Drug Screen. Data for tumor model P388 Leukemia (intraperitoneal) in CD2F1 (CDF1) mice. The following applies: endpoint: median survival time, higher = longer survival.

On to `COc1cccc2c1C(=O)c1c(O)c3c(c(O)c1C2=O)C[C@@](O)(/C(C)=N/NC(=O)c1ccccc1)C[C@@H]3OC1CC(N)C(O)C(C)O1` (some centres undefined), for which, for the setting “dose: 4.0 mg/kg/injection, schedule: Q04DX003 (ip), vehicle: water”, the T/C was 97 % of control and 196 % of control.
With `COC(=O)Nc1nc2ccc(C3(c4ccc(F)cc4)OCCO3)cc2[nH]1`, the T/C (dose: 80.0 mg/kg/injection, schedule: Q04DX003 (ip), vehicle: saline) is 95 % of control and 155 % of control.
Turning to `COc1cc2c(c(OC)c1OC)-c1ccc(SC)c(=O)cc1[C@@H](NC1OC(CO)C(O)C(O)C1O)CC2` (some centres undefined), the T/C (dose: 50.0 mg/kg/injection, schedule: Q01DX009 (ip), vehicle: saline) is 152 % of control [sample A] and 105 % of control, 150 % of control, 170 % of control [sample B].
In the case of `O=C1CN(CCN2CC(=O)N(CN3CCOCC3)C(=O)C2)CC(=O)N1CN1CCOCC1`, the T/C (dose: 25.0 mg/kg/injection, schedule: Q01DX005 (ip), vehicle: water) is 111 % of control and 152 % of control.
